Laboratory results from paper PMC6212790.
The other results are listed elsewhere or left out. At the low end of the ranking the order means little.

biological target: T1, GST-Rok (full length) (UniProt O34857); test: protein binding microarray; details: Rok is a gene silencer of Bacillus subtilis; high values mean tight binding; most listed sequences are background and not binding sites; double strand, one strand shown;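 note: rank score from −0.5 (least bound) to 0.5 (best bound)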
T1 sequence: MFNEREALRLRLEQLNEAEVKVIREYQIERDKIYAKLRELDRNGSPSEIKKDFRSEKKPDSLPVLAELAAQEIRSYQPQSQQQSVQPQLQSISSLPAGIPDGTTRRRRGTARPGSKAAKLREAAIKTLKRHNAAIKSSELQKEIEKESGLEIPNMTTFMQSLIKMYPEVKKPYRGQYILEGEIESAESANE

Sequence	binding signal
ACATCCAC	0.145 E-score
AATGGACA	0.012 E-score
CGTCTAAC	-0.0989 E-score
ACGCTTCA	-0.198 E-score
GCGGTACA	0.0494 E-score
CATTGGAA	-0.00919 E-score
AATCGAAC	0.0924 E-score
CGGGTTTA	-0.0551 E-score
AAAGCGAG	-0.217 E-score
CACAGTCC	-0.304 E-score
AACTAGTA	0.471 E-score
AGGCGGGC	-0.301 E-score
CAAACCCA	0.0236 E-score
ACACTTCC	0.116 E-score
ACCCTACT	0.149 E-score
AAAACGTG	0.0424 E-score
GCAGAAAA	0.0261 E-score
AGACAAGA	0.0696 E-score
AGCCGGCG	-0.362 E-score
GCGTTCTA	0.148 E-score
ATCGCCTG	-0.102 E-score
TCCCAACA	0.0903 E-score
CACATTCC	-0.115 E-score
TGGACCAA	-0.322 E-score
CTCTTCCC	-0.161 E-score

Sequence	binding signal
CACTTCTG	0.125 E-score
GATGTGAA	0.125 E-score
CCATTGTC	-0.0553 E-score
GACCGCGA	-0.313 E-score
TCAGGAGA	-0.112 E-score
ATACCCCA	-0.253 E-score
CCTATTAC	0.285 E-score
TAGAAAGA	0.222 E-score
CACCGCGA	-0.00762 E-score
GCTCTTGA	-0.244 E-score
CTCTAGAG	-0.0355 E-score
CCACGGCC	-0.29 E-score
ACAATGAG	0.0652 E-score
GGATGACA	0.0232 E-score
ACTCCTCA	-0.164 E-score
CCTCGGTC	-0.411 E-score
GGAGTTTA	0.0513 E-score
CTCCATGA	-0.125 E-score
ACATCGAA	0.0366 E-score
AGCTAAAC	0.224 E-score
CTGATTGC	0.137 E-score
ACTGCATC	0.0257 E-score
ATGTTGCA	-0.0338 E-score
TTTCGAAA	0.183 E-score
CAGAGTAC	-0.15 E-score

Sequence	binding signal
TAGACCAA	-0.209 E-score
ACTGATTG	0.228 E-score
CACCGGCA	-0.185 E-score
ACGGTTTC	-0.0509 E-score
ACTTTCTC	0.0817 E-score
CCATGGGG	-0.359 E-score
CCAAGGTC	-0.183 E-score
CAGCTTAC	-0.133 E-score
CTGAATGC	-0.201 E-score
GCTACGAC	0.026 E-score
CGGCTACC	-0.119 E-score
CCGGAAGA	-0.345 E-score
GGACGGAA	-0.131 E-score
AATGCCGG	-0.0976 E-score
GACAGCAA	-0.16 E-score
ATACTACG	0.339 E-score
CGCGTCCA	-0.16 E-score
CCGAAGGC	-0.23 E-score
GACGGGTA	-0.0749 E-score
CCCGTTTC	-0.0198 E-score
CGCCACCC	-0.19 E-score
CTCTAGGA	-0.0682 E-score
ATTGCAAC	0.178 E-score
AGACGAAA	0.169 E-score
CGTTTCGA	0.0684 E-score

Sequence	binding signal
AGATATTC	0.187 E-score
AAGAACCT	0.0515 E-score
GAATAGAA	0.101 E-score
AGAAGGTA	0.129 E-score
ACCCATTA	0.168 E-score
AAGACCCT	-0.303 E-score
AACAGTCC	-0.136 E-score
ACGGTTAC	0.00958 E-score
AACATTAT	0.278 E-score
GTGAGATA	0.106 E-score
CTCCAGTC	-0.286 E-score
AGGATTGA	0.00691 E-score
GGTTCAGA	-0.153 E-score
GCGACACC	-0.24 E-score
CTTGGTGC	-0.209 E-score
AAAGGGGG	-0.255 E-score
AACTCCCT	-0.0881 E-score
AGTAGACA	0.0413 E-score
GAATCAAC	-0.127 E-score
AGAAGAAG	-0.172 E-score
ATTCTATC	0.348 E-score
GCGCACAA	0.0572 E-score
CTTATCCA	-0.143 E-score
CCGTGCAA	0.0277 E-score
GTTTCCTA	0.189 E-score

Sequence	binding signal
CCTGGACG	-0.302 E-score
AATGGTCA	0.166 E-score
CCCGTTGA	-0.0132 E-score
GAACCGTA	0.0996 E-score
ATATATAG	0.416 E-score
CCTACTGA	0.00999 E-score
AGCAATCG	0.0808 E-score
AAGGTTAC	-0.062 E-score
CACAAAGA	0.0297 E-score
CATTAGAG	0.0735 E-score
CTGGTTGC	-0.194 E-score
AATGTGGC	-0.164 E-score
ACGCCTAT	-0.0979 E-score
CGGTCCCA	-0.229 E-score
CCGACTAC	-0.28 E-score
GCGCAACC	-0.0164 E-score
GGCAGACC	-0.217 E-score
AGTACTCG	0.171 E-score
AACTTTCT	0.268 E-score
CCCACGTA	0.0395 E-score
CACCCGGG	-0.386 E-score
AGGCCCGA	-0.282 E-score
AAAGCCAC	-0.106 E-score
ACGGGCGA	-0.0326 E-score
ACCAGTTG	0.0478 E-score

Sequence	binding signal
CGAATTGA	0.0234 E-score
TCGATGCA	0.102 E-score
CTCACCAA	-0.108 E-score
ATGCCGGG	-0.213 E-score
CGTCTCGC	-0.232 E-score
AGACTTTC	-0.0842 E-score
CTCGATGC	-0.0821 E-score
AGGGCTGG	-0.33 E-score
AGCATGAT	0.178 E-score
CGTCAGCC	-0.228 E-score
CCCCCGCG	-0.309 E-score
TAGATCGA	0.199 E-score
TATAACGA	0.245 E-score
GAATCTCA	0.0703 E-score
CTTACCGA	0.204 E-score
CGGTGTCC	-0.389 E-score
GGTCATCA	-0.133 E-score
CATAGCCA	-0.146 E-score
AAGACAGC	-0.221 E-score
AGCCGCGC	-0.28 E-score
CATCCGAG	0.091 E-score
AGTTGAAA	0.0758 E-score
CATACGCG	-0.0538 E-score
AAGTGCCT	-0.202 E-score
CTCAAACC	-0.089 E-score

Sequence	binding signal
CCCACCCA	-0.0202 E-score
GTTCAGCA	-0.000192 E-score
TATCGGAA	0.146 E-score
CACATTTC	0.239 E-score
GATTTACA	0.345 E-score
AGACCGCT	-0.249 E-score
ACAATAGT	0.297 E-score
CACTTTGG	-0.0911 E-score
AATTCTTG	0.207 E-score
AGCCAGCT	-0.121 E-score
TTACCTAA	0.248 E-score
CGCAAGTC	-0.0637 E-score
GAAACTTA	0.141 E-score
AACGACAT	0.182 E-score
ACCCAAAA	0.0448 E-score
CCATGCTA	0.073 E-score
CCGCGCGG	-0.165 E-score
ACGATTAG	0.0305 E-score
ACGAACAA	0.121 E-score
AGGCGCGC	-0.0647 E-score
ACAGCACA	-0.0201 E-score
ATACGGTA	0.348 E-score
